Results as given in the supplement of paper PMC12217912.
Some of the results follow. Sequences were assembled here from the parent chain. Inactive controls read about 0.05.

B1: TEV protease; numbered along this chain (parent)
chain: MGESLFKGPRDYNPISSSICHLTNESDGHTTSLYGIGFGPFIITNKHLFRRNNGTLVVQSLHGVFKVKDTTTLQQHLVDGRDMIIIRMPKDFPPFPQKLKFREPQREERICLVTTNFQTKSMSSMVSDTSCTFPSGDGIFWKHWIQTKDGQCGSPLVSTRDGFIVGIHSASNFTNTNNYFTSVPKNFMELLTNQEAQQWVSGWRLNADSVLWGGHKVFMVKPEEPFQPVKEATQL

Variants of: B1
Assay: raw area under fraction-flipped curve 0-4 h after induction (AUC4h, not background-subtracted), DNA-recorder readout of cleavage of the substrate (dimensionless); higher = more cleavage of the substrate by the protease variant
Details: temperature: 34 °C; time window: 0-4 h after rhamnose induction
Description: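 In vivo DNA recorder in E. coli TOP10(DE3) ΔrhaA at 34 °C. Each TEVp single-site mutant (parent TEVp 0) is paired with a single-site variant of the 7-mer TEVs (canonical ENLYFQ|S). The substrate sits between flexible linkers in a Bxb1-sfGFP-TEVs-SsrA fusion, so cleavage stabilises Bxb1 and speeds flipping of a recombination array, read by NGS. The value is the raw area under the fraction-flipped curve over 0-4 h after rhamnose induction (AUC4h), with ≥20 reads per time point. It is not background-subtracted; inactive controls average about 0.047.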
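Also: Bxb1 expression induced with 0.2% (w/v) L-rhamnose at OD600 near 0.5, cultures sampled hourly, flipped fraction per protease–substrate barcode pair counted by paired-end Illumina sequencing.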

| Variant | area with substrate CNLYFQS | area with substrate DNLYFQS | area with substrate FNLYFQS | area with substrate GNLYFQS | area with substrate HNLYFQS | area with substrate INLYFQS | area with substrate PNLYFQS | area with substrate SNLYFQS | area with substrate TNLYFQS | area with substrate WNLYFQS | area with substrate KNLYFQS | area with substrate LNLYFQS | area with substrate MNLYFQS | area with substrate NNLYFQS | area with substrate VNLYFQS | area with substrate YNLYFQS | area with substrate QNLYFQS | area with substrate RNLYFQS |
| --- | --- | --- | --- | --- | --- | --- | --- | --- | --- | --- | --- | --- | --- | --- | --- | --- | --- | --- |
| MGESLFKGPRDYNPISSSICHLTNESDGHTASLYGIGFGPFIITNKHLFRRNNGTLVVQSLHGVFKVKDTTTLQQHLVDGRDMIIIRMPKDFPPFPQKLKFREPQREERICLVTTNFQTKSMSSMVSDTSCTFPSGDGIFWKHWIQTKDGQCGSPLVSTRDGFIVGIHSASNFTNTNNYFTSVPKNFMELLTNQEAQQWVSGWRLNADSVLWGGHKVFMVKPEEPFQPVKEATQL [T31A] | 0.0711 | 0.0938 | 0.054 | 0.0538 | 0.0645 | 0.0607 | 0.0765 | 0.0628 | 0.0824 | 0.0474 |  |  |  |  |  |  |  |  |
| MGESLFKGPRDYNPISSSICHLTNESDGHTTSIYGIGFGPFIITNKHLFRRNNGTLVVQSLHGVFKVKDTTTLQQHLVDGRDMIIIRMPKDFPPFPQKLKFREPQREERICLVTTNFQTKSMSSMVSDTSCTFPSGDGIFWKHWIQTKDGQCGSPLVSTRDGFIVGIHSASNFTNTNNYFTSVPKNFMELLTNQEAQQWVSGWRLNADSVLWGGHKVFMVKPEEPFQPVKEATQL [L33I] | 0.061 | 0.0655 | 0.068 | 0.0559 | 0.0488 | 0.0658 | 0.0645 | 0.0663 | 0.063 | 0.0613 |  |  |  |  |  |  |  |  |
| MGESLFKGPRDYNPISSSICHLTNESDGHTTSMYGIGFGPFIITNKHLFRRNNGTLVVQSLHGVFKVKDTTTLQQHLVDGRDMIIIRMPKDFPPFPQKLKFREPQREERICLVTTNFQTKSMSSMVSDTSCTFPSGDGIFWKHWIQTKDGQCGSPLVSTRDGFIVGIHSASNFTNTNNYFTSVPKNFMELLTNQEAQQWVSGWRLNADSVLWGGHKVFMVKPEEPFQPVKEATQL [L33M] | 0.0458 | 0.0521 | 0.0517 | 0.0592 | 0.0631 | 0.0397 |  | 0.128 | 0.0604 | 0.0605 | 0.0699 | 0.0626 | 0.0311 | 0.0587 | 0.0552 | 0.0669 |  |  |
| MGESLFKGPRDYNPISSSICHLTNESDGHTTSLYGHGFGPFIITNKHLFRRNNGTLVVQSLHGVFKVKDTTTLQQHLVDGRDMIIIRMPKDFPPFPQKLKFREPQREERICLVTTNFQTKSMSSMVSDTSCTFPSGDGIFWKHWIQTKDGQCGSPLVSTRDGFIVGIHSASNFTNTNNYFTSVPKNFMELLTNQEAQQWVSGWRLNADSVLWGGHKVFMVKPEEPFQPVKEATQL [I36H] | 0.0453 | 0.0433 |  | 0.0331 | 0.0512 | 0.0544 | 0.0473 |  | 0.0463 | 0.0519 | 0.0526 | 0.0309 | 0.0409 | 0.0391 | 0.0396 | 0.0282 | 0.0481 |  |
| MGESLFKGPRDYNPISSSICHLTNESDGHTTSLYGMGFGPFIITNKHLFRRNNGTLVVQSLHGVFKVKDTTTLQQHLVDGRDMIIIRMPKDFPPFPQKLKFREPQREERICLVTTNFQTKSMSSMVSDTSCTFPSGDGIFWKHWIQTKDGQCGSPLVSTRDGFIVGIHSASNFTNTNNYFTSVPKNFMELLTNQEAQQWVSGWRLNADSVLWGGHKVFMVKPEEPFQPVKEATQL [I36M] | 0.0774 | 0.12 |  | 0.0666 | 0.107 | 0.0696 | 0.0714 | 0.0592 | 0.0708 | 0.0608 | 0.0731 | 0.0586 | 0.0566 | 0.047 | 0.0559 | 0.0548 |  | 0.0559 |
| MGESLFKGPRDYNPISSSICHLTNESDGHTTSLYGSGFGPFIITNKHLFRRNNGTLVVQSLHGVFKVKDTTTLQQHLVDGRDMIIIRMPKDFPPFPQKLKFREPQREERICLVTTNFQTKSMSSMVSDTSCTFPSGDGIFWKHWIQTKDGQCGSPLVSTRDGFIVGIHSASNFTNTNNYFTSVPKNFMELLTNQEAQQWVSGWRLNADSVLWGGHKVFMVKPEEPFQPVKEATQL [I36S] | 0.0689 | 0.0576 | 0.0416 |  | 0.0503 | 0.0498 | 0.0709 | 0.0679 | 0.0639 | 0.049 | 0.0521 | 0.0489 |  |  | 0.0514 | 0.0434 |  |  |
| MGESLFKGPRDYNPISSSICHLTNESDGHTTSLYGTGFGPFIITNKHLFRRNNGTLVVQSLHGVFKVKDTTTLQQHLVDGRDMIIIRMPKDFPPFPQKLKFREPQREERICLVTTNFQTKSMSSMVSDTSCTFPSGDGIFWKHWIQTKDGQCGSPLVSTRDGFIVGIHSASNFTNTNNYFTSVPKNFMELLTNQEAQQWVSGWRLNADSVLWGGHKVFMVKPEEPFQPVKEATQL [I36T] | 0.0481 | 0.0723 |  |  | 0.0709 |  | 0.0586 | 0.043 | 0.0558 | 0.0574 |  | 0.0649 | 0.0983 | 0.0563 |  | 0.0456 | 0.0634 |  |
| MGESLFKGPRDYNPISSSICHLTNESDGHTTSLYGWGFGPFIITNKHLFRRNNGTLVVQSLHGVFKVKDTTTLQQHLVDGRDMIIIRMPKDFPPFPQKLKFREPQREERICLVTTNFQTKSMSSMVSDTSCTFPSGDGIFWKHWIQTKDGQCGSPLVSTRDGFIVGIHSASNFTNTNNYFTSVPKNFMELLTNQEAQQWVSGWRLNADSVLWGGHKVFMVKPEEPFQPVKEATQL [I36W] | 0.0444 | 0.0627 |  |  | 0.0521 | 0.0441 | 0.0559 |  | 0.049 | 0.0567 | 0.0623 |  |  | 0.0454 | 0.0461 | 0.049 |  |  |
| MGESLFKGPRDYNPISSSICHLTNESDGHTTSLYGYGFGPFIITNKHLFRRNNGTLVVQSLHGVFKVKDTTTLQQHLVDGRDMIIIRMPKDFPPFPQKLKFREPQREERICLVTTNFQTKSMSSMVSDTSCTFPSGDGIFWKHWIQTKDGQCGSPLVSTRDGFIVGIHSASNFTNTNNYFTSVPKNFMELLTNQEAQQWVSGWRLNADSVLWGGHKVFMVKPEEPFQPVKEATQL [I36Y] | 0.0409 | 0.0492 |  |  | 0.0401 | 0.0481 |  |  | 0.0388 | 0.0498 |  | 0.0347 | 0.0574 | 0.0519 | 0.0515 |  | 0.0477 | 0.0443 |
